# Measured values as given in PubChem BioAssay AID652104 (National Center for Advancing Translational Sciences (NCATS), 2013).
# About 7,200 (1.8%) of roughly 410,000 compounds were called active. Inconclusive results, whose numbers are uncertain, are shown with a selection of clear calls. Calls come from the whole dose curve; as a rule, active = well fitted activation curve with a large enough effect; inconclusive = small, poorly fitted or top-dose-only effect, or another doubt; inactive = no such curve, though single readings can be large or run the other way. Potencies of inconclusive entries are left out as doubtful fits.
# Experiment: qHTS of TDP-43 Inhibitors; note: nearly all actives have a fitted effect of over 50% in size; for growth rescue (activation): % of control where 0% means no effect
# Conditions: TDP-43 expressing yeast growth rescue, BacTiter-Glo, 24 h; growth rescue (activation): at 46.1 µM (top of the series) unless noted
# Procedure, shortened: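 Yeast cells expressing TDP-43 under galactose induction are exposed to compounds for 24 hr at 30 deg C. BacTiter-Glo luminescence measures growth, so protective compounds score as activators.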
# Potency is the fitted concentration of half-maximal effect; tags give direction and shape of the fitted curve.
SMILES,Potency,growth rescue (activation)
CCS(=O)(=O)N1CCN(C(=O)COc2ccc(-c3ccccc3)cc2)CC1,"inconclusive [activator, partial curve]",
CC(=O)OCCSc1c(-c2ccccc2)c2cc(Cl)ccc2[nH]c1=O,"inconclusive [activator, single point]",
CC(=O)Nc1ccc(S(=O)(=O)N2CCSC2c2ccc(Cl)cc2)cc1 (centres undefined),"inconclusive [activator, single point]",
c1ccc(-c2nnc3sc(-c4csc5c4CCCC5)nn23)cc1,active: 20 µM,
O=C(c1ccc(-n2cccn2)cc1)N1CCc2c([nH]c3ccccc23)C1c1ccccn1 (centres undefined),"inconclusive [activator, single point]",
CCc1ccc2oc(-c3cc(N)ccc3Cl)nc2c1,active: 17.8 µM,
CC(C)CCN1C(=O)c2ccc(C(=O)N3CCCCC3)cc2C1=O,"inconclusive [activator, single point]",
CCOC(=O)c1cnc2ccc(OCC)cc2c1N1CCN(c2cccc(Cl)c2)CC1,active: 20 µM,
CN(C)C(=O)c1ccc(NC(=O)COc2cccc(Oc3ccccc3)c2)cc1,"inconclusive [activator, single point]",
CC1CCCCC1NC(=O)COc1ccccc1C#N (centres undefined),"inconclusive [activator, partial curve]",
O=C1CC(c2ccccc2)Cc2[nH]c(=O)c(-c3nc(-c4ccc(F)cc4)cs3)cc21 (centres undefined),,inactive: -1.53%
COc1ccc2[nH]c3c(NCc4ccco4)ncnc3c2c1,,inactive: 1.49%
CN(Cc1ccccc1)c1oc(-c2ccco2)nc1C#N,"inconclusive [activator, single point]",
Cc1cc(N2CCN(C(=O)c3ccco3)CC2)n2ncc(-c3ccccc3)c2n1,,inconclusive: -74.3% [activator]
Cc1ccc2nnn(Cc3cccc(C(C)(C)C)c3O)c2c1,"inconclusive [activator, single point]",
CCOc1cccc(-c2nnc3sc(C4CCCCC4)nn23)c1,active: 17.8 µM,
COc1ccccc1OCCCn1c(=O)oc2ccccc21,"inconclusive [activator, partial curve]",
Cc1cc(C)cc(OCC(=O)Nc2ccccc2C(=O)NCc2ccco2)c1,"inconclusive [activator, partial curve]",
COc1cc(C(=O)N/N=C/c2coc3ccc(Cl)cc3c2=O)ccc1O,"inconclusive [activator, full curve, poor fit]",
CCCCN1C(=O)C(O)(c2c(C)[nH]c3ccccc23)c2cc(Br)ccc21 (centres undefined),"inconclusive [activator, partial curve, poor fit]",
CCCCNC(=O)c1onc(CSc2ccccn2)c1C(=O)NCCCC,active: 14.1 µM,
CCOC(=O)c1c(C)[nH]c(=S)c(C#N)c1-c1ccc(Cl)cc1,"inconclusive [activator, partial curve]",

SMILES,Potency,growth rescue (activation)
COc1ccc([C@H]2CC(=O)C=C(c3cc(OC)ccc3OC)C2)cc1,"inconclusive [activator, single point]",
COc1ccc(-c2noc(CCCCC(=O)N3CCN(c4cc(C)ccc4C)CC3)n2)cc1,"inconclusive [activator, partial curve]",
Cc1ccc(NC(=O)CNc2cccc(C)c2C)c(C)c1,"inconclusive [activator, partial curve]",
CCc1ccc(NC(=O)N(Cc2c[nH]c3ccccc23)C2CCCCCC2)cc1,,inactive: 12%
CCc1nc(C)cn1S(=O)(=O)c1cc(C)c(OC)cc1C,"inconclusive [activator, partial curve]",
COc1ccc([C@@]23Oc4cc(OC)cc(OC)c4[C@]2(O)[C@H](O)[C@H](C(=O)N(C)C)[C@H]3c2ccccc2)cc1,"inconclusive [activator, single point]",
O=C(COC(=O)c1cccc(Br)c1)NCCc1ccc(F)cc1,active: 12.6 µM,
N#C/C(=C\c1ccc(O)c(O)c1)C(=O)Nc1ccccc1,"inconclusive [activator, full curve]",
Cc1ccc(C)c(CSc2nnc(-c3cccnc3)o2)c1,"inconclusive [activator, single point]",
Cc1cc(C(=O)c2cnc(/N=C/N(C)C)s2)c(F)cc1Cl,"inconclusive [activator, single point]",
Cc1ccc(Cl)cc1NC(=O)c1ccc(CSc2nnnn2C)cc1,"inconclusive [activator, single point]",
COc1cccc(C(O)c2nc(-c3cc(F)cc(F)c3)cs2)c1 (centres undefined),active: 15.8 µM,
O=C(CSc1ncnc2nc[nH]c12)c1ccccc1,,inactive: -7.47%
O=S(=O)(Nc1nc(CN2CCOCC2)nc2sc3c(c12)CCCC3)c1cc(F)ccc1F,"inconclusive [activator, partial curve, poor fit]",
CCCn1nnc(NC(=O)c2sc3ccccc3c2Cl)n1,"inconclusive [activator, single point]",
COC(=O)c1c(NC(=O)COC(=O)Cn2cnc3ccccc32)sc(C)c1C,"inconclusive [activator, single point]",
COc1cccc2cc(C(=O)N3CCCCC3C)c(=O)oc12 (centres undefined),,inactive: -8.16%
Cn1nc(C(=O)N2CCc3ccccc32)c2ccccc2c1=O,"inconclusive [activator, single point]",
CC(C)NC(=O)c1cc2c(C(F)(F)F)nn(C)c2s1,"inconclusive [activator, partial curve]",
O=S(=O)(NCCc1csc(-c2ccc(F)cc2)n1)c1ccc(F)cc1F,active: 2.82 µM,
COC(=O)N/N=C/c1cccc(OCCSc2ccc(Cl)cc2)c1,"inconclusive [activator, single point]",
Cc1ccccc1-c1cc2c(c3c1ccn3C)C1CCC2C1 (centres undefined),"inconclusive [activator, partial curve]",
